Laboratory results reported in PubChem BioAssay (NCI).
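96-well plates; 48 h exposure; 5 concentrations. Endpoints by linear interpolation between flanking doses. Not reached: highest tested concentration assigned. GI50 is the concentration that inhibits growth by half.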 A number of entries come with more than one value. The list is limited to them. There may be further records. The values listed for one entry repeat one measurement in other runs, samples, wells, individuals or studies. What stands in brackets tells the records apart. Letters count within one entry.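 The concentration for full growth arrest is given as TGI.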

Assays:
Assay in all cases: NCI tumour cell line growth inhibition, 48 h
HL-60(TB) leukemia = system: HL-60(TB) leukemia
SR leukemia = system: SR leukemia
CCRF-CEM leukemia = system: CCRF-CEM leukemia
SK-MEL-5 melanoma = system: SK-MEL-5 melanoma

COC(=O)/C=C/c1cc(OC)c2c(c1)C(C(=O)OC)C(c1ccc(O)c(OC)c1)O2 (centres undefined)
TGI (HL-60(TB) leukemia): 3.81 µM [sample A, mean of 2 tests] and > 100 µM [sample B, mean of 2 tests] and 3.81 µM [sample C, mean of 2 tests]
GI50 (SR leukemia): 2.03 µM [sample A, mean of 2 tests] and 6.66 µM [sample B, 1 test] and 284 nM [sample C, mean of 2 tests]
TGI (CCRF-CEM leukemia): > 100 µM [sample A, mean of 2 tests] and > 100 µM [sample B, mean of 2 tests] and 9.51 µM [sample C, mean of 3 tests]
TGI (SK-MEL-5 melanoma): > 100 µM [sample A] and 19.8 µM [sample B] and 9.12 µM [sample C]
